Measured values reported in paper PMC5805371.
Read-outs that look alike come from different tables or passages of the source. Results are given in words; binding and its absence hold for the method and conditions named. Binding seen in cells or lysates may run through a third protein. Some results given as binding are weak or reduced against the parent protein; the word gives no strength. For some of these results: Where a sequence is shown, tags or fusion partners need not be part of it.

Amino acid sequences for entries named in this document (tags omitted).
UniProt Q92973: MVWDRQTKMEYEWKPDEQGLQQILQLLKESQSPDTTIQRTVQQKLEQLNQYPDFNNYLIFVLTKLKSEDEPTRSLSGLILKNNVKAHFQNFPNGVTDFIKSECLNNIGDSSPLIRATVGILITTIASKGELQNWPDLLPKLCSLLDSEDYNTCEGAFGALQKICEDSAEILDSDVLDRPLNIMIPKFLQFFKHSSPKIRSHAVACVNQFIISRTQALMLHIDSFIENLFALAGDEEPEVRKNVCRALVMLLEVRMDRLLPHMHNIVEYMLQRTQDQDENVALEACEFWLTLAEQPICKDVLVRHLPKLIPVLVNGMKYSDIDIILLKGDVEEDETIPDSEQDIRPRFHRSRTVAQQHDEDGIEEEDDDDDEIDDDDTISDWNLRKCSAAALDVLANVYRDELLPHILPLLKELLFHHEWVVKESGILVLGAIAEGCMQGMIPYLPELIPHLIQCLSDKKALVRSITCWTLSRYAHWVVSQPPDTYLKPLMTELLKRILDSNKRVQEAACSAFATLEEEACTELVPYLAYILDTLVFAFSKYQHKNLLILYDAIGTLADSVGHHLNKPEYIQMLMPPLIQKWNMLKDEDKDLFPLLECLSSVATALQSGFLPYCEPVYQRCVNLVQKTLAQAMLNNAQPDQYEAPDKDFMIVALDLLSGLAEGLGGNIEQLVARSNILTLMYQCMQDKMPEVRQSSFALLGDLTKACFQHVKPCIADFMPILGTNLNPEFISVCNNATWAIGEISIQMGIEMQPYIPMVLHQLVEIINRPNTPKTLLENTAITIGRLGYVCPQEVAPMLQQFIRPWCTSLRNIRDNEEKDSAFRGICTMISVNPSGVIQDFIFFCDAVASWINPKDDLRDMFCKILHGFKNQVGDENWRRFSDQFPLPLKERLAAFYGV
UniProt O54943: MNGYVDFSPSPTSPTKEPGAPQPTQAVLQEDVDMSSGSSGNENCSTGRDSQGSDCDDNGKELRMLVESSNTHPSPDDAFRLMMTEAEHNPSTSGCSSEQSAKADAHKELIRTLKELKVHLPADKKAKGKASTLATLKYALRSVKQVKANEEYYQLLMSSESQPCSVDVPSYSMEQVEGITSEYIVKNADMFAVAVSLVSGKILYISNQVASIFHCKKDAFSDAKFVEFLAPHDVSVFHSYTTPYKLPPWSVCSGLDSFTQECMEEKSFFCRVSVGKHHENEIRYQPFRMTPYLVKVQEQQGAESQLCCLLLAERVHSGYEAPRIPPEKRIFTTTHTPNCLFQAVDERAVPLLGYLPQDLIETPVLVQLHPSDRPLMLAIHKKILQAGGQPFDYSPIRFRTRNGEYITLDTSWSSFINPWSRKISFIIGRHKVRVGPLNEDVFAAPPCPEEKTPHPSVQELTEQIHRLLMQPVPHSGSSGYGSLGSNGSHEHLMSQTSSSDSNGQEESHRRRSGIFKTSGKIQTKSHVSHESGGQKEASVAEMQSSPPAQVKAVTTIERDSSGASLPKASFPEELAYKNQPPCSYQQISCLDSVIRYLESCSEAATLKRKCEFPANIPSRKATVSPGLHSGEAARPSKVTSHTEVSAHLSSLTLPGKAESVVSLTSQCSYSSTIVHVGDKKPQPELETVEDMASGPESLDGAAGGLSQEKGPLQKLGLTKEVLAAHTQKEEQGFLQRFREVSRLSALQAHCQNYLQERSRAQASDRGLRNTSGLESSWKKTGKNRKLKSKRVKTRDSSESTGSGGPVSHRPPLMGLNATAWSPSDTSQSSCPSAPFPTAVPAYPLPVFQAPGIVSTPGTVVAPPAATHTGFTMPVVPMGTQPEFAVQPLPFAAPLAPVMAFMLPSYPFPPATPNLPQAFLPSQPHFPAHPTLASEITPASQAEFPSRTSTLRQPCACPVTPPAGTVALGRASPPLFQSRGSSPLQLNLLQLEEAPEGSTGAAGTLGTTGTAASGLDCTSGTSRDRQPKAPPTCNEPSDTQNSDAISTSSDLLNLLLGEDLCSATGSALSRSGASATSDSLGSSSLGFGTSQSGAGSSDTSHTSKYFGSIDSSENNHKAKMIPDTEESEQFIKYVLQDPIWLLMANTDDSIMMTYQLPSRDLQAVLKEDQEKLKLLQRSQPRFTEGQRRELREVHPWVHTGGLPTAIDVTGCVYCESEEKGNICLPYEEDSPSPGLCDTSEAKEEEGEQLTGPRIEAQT
UniProt P00722: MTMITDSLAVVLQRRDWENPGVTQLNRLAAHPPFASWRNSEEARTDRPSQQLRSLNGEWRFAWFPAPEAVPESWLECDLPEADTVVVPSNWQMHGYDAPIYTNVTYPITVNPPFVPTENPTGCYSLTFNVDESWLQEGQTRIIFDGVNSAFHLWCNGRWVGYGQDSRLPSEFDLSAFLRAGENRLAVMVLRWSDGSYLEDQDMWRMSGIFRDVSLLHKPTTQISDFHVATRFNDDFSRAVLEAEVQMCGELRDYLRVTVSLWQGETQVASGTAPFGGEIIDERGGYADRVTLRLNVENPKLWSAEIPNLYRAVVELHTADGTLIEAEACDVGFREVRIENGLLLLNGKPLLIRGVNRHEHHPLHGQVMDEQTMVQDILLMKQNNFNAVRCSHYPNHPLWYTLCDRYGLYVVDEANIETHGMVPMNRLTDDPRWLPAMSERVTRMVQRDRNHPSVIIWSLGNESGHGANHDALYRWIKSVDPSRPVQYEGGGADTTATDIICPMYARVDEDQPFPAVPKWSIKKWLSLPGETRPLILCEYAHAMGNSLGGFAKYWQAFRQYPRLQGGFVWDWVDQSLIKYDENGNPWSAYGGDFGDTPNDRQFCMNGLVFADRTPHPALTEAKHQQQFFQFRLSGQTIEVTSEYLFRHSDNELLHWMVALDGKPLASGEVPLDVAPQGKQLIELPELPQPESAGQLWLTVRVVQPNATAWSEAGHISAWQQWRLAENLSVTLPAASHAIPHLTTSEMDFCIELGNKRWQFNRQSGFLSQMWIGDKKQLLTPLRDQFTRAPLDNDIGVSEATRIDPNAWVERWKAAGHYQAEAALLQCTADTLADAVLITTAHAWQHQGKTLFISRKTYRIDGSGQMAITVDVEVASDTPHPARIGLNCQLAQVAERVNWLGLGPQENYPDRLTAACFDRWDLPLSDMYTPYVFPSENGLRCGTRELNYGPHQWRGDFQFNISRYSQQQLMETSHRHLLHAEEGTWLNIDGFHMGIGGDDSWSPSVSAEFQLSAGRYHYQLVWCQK

Key:
[1] = target: LUC1-TNPO1 (UniProt Q92973); test: split reporter; split firefly luciferase complementation in transiently transfected HEK293 cells (400 ng each construct), activity measured in cell lysates 48 h after transfection, normalised to renilla luciferase
[2] = target: MYC-tagged TNPO1 (UniProt Q92973); test: co-IP; luciferase-based read-out: HEK293 cells co-expressing PER1/2-Luc and MYC-TNPO1 (anti-MYC IP) or PER1/2-V5 and TNPO1-Luc (anti-V5 IP), lysed in PKB buffer without protease and phosphatase inhibitors, agarose G+ beads, 4°C, washed with ice cold PBS; luminescence counts relative to normal mouse IgG control IPs; also done with 200 μM H2O2 (higher signals for PER1, not PER2)
[3] = target: Transportin 1 (TNPO1), endogenous (human (endogenous in U-2 OS)) (UniProt Q92973); test: co-IP; U-2 OS cells stably expressing PER1-LUCIFERASE, lysate in PKB buffer, IP with anti-TNPO1 (ab10303) of endogenous TNPO1 against IgG control, luciferase read-out; also with increasing H2O2 concentrations and 200 μM diamide (increased signal)
[4] = target: Transportin 1 (TNPO1), endogenous (human (endogenous in U-2 OS)) (UniProt Q92973); test: condition: only reducing conditions (1 mM TCEP in the lysis buffer); co-IP; as a5 but under reducing conditions: 1 mM TCEP added to the PKB lysis buffer
[5] = target: V5-tagged PER2 (not stated (mPER2 CDS named for the Venus constructs)) (UniProt O54943); test: co-IP; luciferase-based read-out: HEK293 cells co-expressing PER1/2-Luc and MYC-TNPO1 (anti-MYC IP) or PER1/2-V5 and TNPO1-Luc (anti-V5 IP), lysed in PKB buffer without protease and phosphatase inhibitors, agarose G+ beads, 4°C, washed with ice cold PBS; luminescence counts relative to normal mouse IgG control IPs; also done with 200 μM H2O2 (higher signals for PER1, not PER2)
[6] = target: V5-tagged PER1 (not stated (human PER1 in the scheme of Fig 3D; mPER1 CDS named for the Venus constructs)) (UniProt O15534); test: as above
[7] = target: MYC-tagged TNPO1 (UniProt Q92973); test: as above; remark: listed apart in the source

LUC2-βGAL (from UniProt P00722 1-1024)
binding [1]: no binding

PER1 fused to full-length firefly luciferase (HEK293) (from UniProt O15534 1-1290)
binding [2]: binds

PER1-LUC2 (from UniProt O15534 1-1290)
binding [1]: binds

PER1-LUCIFERASE fusion protein (stably expressed in U-2 OS cells) (from UniProt O15534 1-1290)
binding [3]: binds | binding [4]: no binding

PER2 fused to full-length firefly luciferase (from UniProt O54943 1-1257)
binding [2]: binds weakly

TNPO1-luciferase (from UniProt Q92973 1-898)
binding [5]: binds weakly | binding [6]: binds

B1: PER1 (amino acids 1–924)-LUCIFERASE (domain or fragment, UniProt O15534 1-924)
chain: MSGPLEGADGGGDPRPGESFCPGGVPSPGPPQHRPCPGPSLADDTDANSNGSSGNESNGHESRGASQRSSHSSSSGNGKDSALLETTESSKSTNSQSPSPPSSSIAYSLLSASSEQDNPSTSGCSSEQSARARTQKELMTALRELKLRLPPERRGKGRSGTLATLQYALACVKQVQANQEYYQQWSLEEGEPCSMDMSTYTLEELEHITSEYTLQNQDTFSVAVSFLTGRIVYISEQAAVLLRCKRDVFRGTRFSELLAPQDVGVFYGSTAPSRLPTWGTGASAGSGLRDFTQEKSVFCRIRGGPDRDPGPRYQPFRLTPYVTKIRVSDGAPAQPCCLLIAERIHSGYEAPRIPPDKRIFTTRHTPSCLFQDVDERAAPLLGYLPQDLLGAPVLLFLHPEDRPLMLAIHKKILQLAGQPFDHSPIRFCARNGEYVTMDTSWAGFVHPWSRKVAFVLGRHKVRTAPLNEDVFTPPAPSPAPSLDTDIQELSEQIHRLLLQPVHSPSPTGLCGVGAVTSPGPLHSPGSSSDSNGGDAEGPGPPAPVTFQQICKDVHLVKHQGQQLFIESRARPQSRPRLPATGTFKAKALPCQSPDPELEAGSAPVQAPLALVPEEAERKEASSCSYQQINCLDSILRYLESCNLPSTTKRKCASSSSYTTSSASDDDRQRTGPVSVGTKKDPPSAALSGEGATPRKEPVVGGTLSPLALANKAESVVSVTSQCSFSSTIVHVGDKKPPESDIIMMEDLPGLAPGPAPSPAPSPTVAPDPAPDAYRPVGLTKAVLSLHTQKEEQAFLSRFRDLGRLRGLDSSSTAPSALGERGCHHGPAPPSRRHHCRSKAKRSRHHQNPRAEAPCYVSHPSPVPPSTPWPTPPATTPFPAVVQPYPLPVFSPRGGPQPLPPAPTSVPPAAFPAPLVTPMVALVLP
binding [7]: binds

B2: PER1 (amino acids 1–706)-LUCIFERASE (domain or fragment, UniProt O15534 1-706)
chain: MSGPLEGADGGGDPRPGESFCPGGVPSPGPPQHRPCPGPSLADDTDANSNGSSGNESNGHESRGASQRSSHSSSSGNGKDSALLETTESSKSTNSQSPSPPSSSIAYSLLSASSEQDNPSTSGCSSEQSARARTQKELMTALRELKLRLPPERRGKGRSGTLATLQYALACVKQVQANQEYYQQWSLEEGEPCSMDMSTYTLEELEHITSEYTLQNQDTFSVAVSFLTGRIVYISEQAAVLLRCKRDVFRGTRFSELLAPQDVGVFYGSTAPSRLPTWGTGASAGSGLRDFTQEKSVFCRIRGGPDRDPGPRYQPFRLTPYVTKIRVSDGAPAQPCCLLIAERIHSGYEAPRIPPDKRIFTTRHTPSCLFQDVDERAAPLLGYLPQDLLGAPVLLFLHPEDRPLMLAIHKKILQLAGQPFDHSPIRFCARNGEYVTMDTSWAGFVHPWSRKVAFVLGRHKVRTAPLNEDVFTPPAPSPAPSLDTDIQELSEQIHRLLLQPVHSPSPTGLCGVGAVTSPGPLHSPGSSSDSNGGDAEGPGPPAPVTFQQICKDVHLVKHQGQQLFIESRARPQSRPRLPATGTFKAKALPCQSPDPELEAGSAPVQAPLALVPEEAERKEASSCSYQQINCLDSILRYLESCNLPSTTKRKCASSSSYTTSSASDDDRQRTGPVSVGTKKDPPSAALSGEGATPRKEPVVGGTLSPL
binding [7]: no binding
